In all, about 310,000 compounds went through this assay and about 14,000 (4.5%) showed an effect of 50% or more. The effect is printed as a negative number. The list shows a part of the results.
These compounds were tested against human ether-à-go-go-related gene (hERG) potassium channel (human, UniProt Q12809) (assay: primary screen, population patch clamp on CHO cells stably expressing hERG).
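Further: peak tail current of the secondary pulse compared with the same well before compound.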

Chain of human ether-à-go-go-related gene (hERG) potassium channel (Q12809 whole entry, looked up): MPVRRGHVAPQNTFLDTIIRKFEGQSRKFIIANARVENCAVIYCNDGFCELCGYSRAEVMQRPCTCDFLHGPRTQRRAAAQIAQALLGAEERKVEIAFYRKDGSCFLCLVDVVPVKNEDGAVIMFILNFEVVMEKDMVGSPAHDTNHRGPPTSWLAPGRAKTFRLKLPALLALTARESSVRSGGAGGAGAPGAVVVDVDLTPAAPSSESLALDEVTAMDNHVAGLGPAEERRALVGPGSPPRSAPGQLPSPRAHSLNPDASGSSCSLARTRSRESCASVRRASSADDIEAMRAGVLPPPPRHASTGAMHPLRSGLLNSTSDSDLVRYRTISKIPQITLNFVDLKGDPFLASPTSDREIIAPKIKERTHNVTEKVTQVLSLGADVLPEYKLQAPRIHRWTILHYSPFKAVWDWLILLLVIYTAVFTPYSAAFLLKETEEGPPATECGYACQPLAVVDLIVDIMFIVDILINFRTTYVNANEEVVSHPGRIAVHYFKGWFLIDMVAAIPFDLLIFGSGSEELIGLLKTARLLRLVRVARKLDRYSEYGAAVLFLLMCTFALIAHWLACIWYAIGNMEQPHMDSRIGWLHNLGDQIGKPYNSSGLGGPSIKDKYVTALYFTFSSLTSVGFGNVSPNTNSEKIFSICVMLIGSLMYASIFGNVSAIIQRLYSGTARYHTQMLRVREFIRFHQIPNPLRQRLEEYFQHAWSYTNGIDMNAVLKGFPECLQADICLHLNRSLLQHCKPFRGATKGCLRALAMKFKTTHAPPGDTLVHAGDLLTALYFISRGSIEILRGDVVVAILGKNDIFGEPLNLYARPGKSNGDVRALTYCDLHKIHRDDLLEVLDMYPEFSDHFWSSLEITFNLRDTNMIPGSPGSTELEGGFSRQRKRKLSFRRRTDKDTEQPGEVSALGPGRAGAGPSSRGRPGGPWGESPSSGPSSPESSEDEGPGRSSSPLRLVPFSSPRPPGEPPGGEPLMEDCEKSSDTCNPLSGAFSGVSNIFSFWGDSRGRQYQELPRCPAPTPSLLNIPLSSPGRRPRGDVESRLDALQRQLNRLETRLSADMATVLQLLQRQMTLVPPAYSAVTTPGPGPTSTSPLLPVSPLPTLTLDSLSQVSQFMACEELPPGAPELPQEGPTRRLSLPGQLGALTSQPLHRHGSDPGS

| Compound | hERG current change (%, negative = inhibition) at 10uM [%] |
| --- | --- |
| COc1ccccc1/C=C/C(=O)Oc1cccc2cccnc12.Cl | 3.93 |
| COc1cccc(-c2ccc(C#N)c(SCC(=O)NCCc3ccccc3)n2)c1 | 2.15 |
| Cl.c1ccc2c3c([nH]c2c1)C1(CCCCC1)NCC3 | 2.11 |
| O=C(NC1CCCCC1)C(c1cccs1)N(C(=O)c1ccco1)c1ccc2c(c1)OCCO2 (stereo not shown) | -7.63 |
| O=C(N/C(=C\c1ccc(Br)cc1)C(=O)N1CCOCC1)c1ccco1 | -41 |
| CCOc1ccc(C=Nc2cccc3ncccc23)cc1 | 2.86 |
| CCCCc1nnc(NC(=O)c2nc3nccc(C)n3n2)s1 | 13.7 |
| Cc1ccc(N2C(=O)CC(NCc3ccc4c(c3)OCO4)C2=O)cc1Cl (stereo not shown) | -54.8 |
| CSc1cccc(NC(=O)Nc2ccccc2C(N)=O)c1 | 15.3 |
| C=CCN1C(=O)C(Cc2ccc(OCC)cc2)SC1=Nc1ccc(C(=O)O)cc1 (stereo not shown) | -2.45 |
| Cc1cccn2c(NC(=O)c3ccccc3F)c(-c3ccccc3)nc12 | -6.62 |
| C=CCn1c(=O)c2ccccc2n2c(SCC(N)=O)nnc12 | 2.96 |
| Cc1cc(-c2nnc(SCC(=O)Nc3ccc(F)cc3F)n2N)n[nH]1 | 1.14 |
| COc1ccc(C)cc1NC(=O)COC(=O)C1CC1 | 6.16 |
| O=C(CNC(=O)c1sc2ccccc2c1Cl)OCc1ccccc1 | 3.28 |
| C=CCN(c1ccccc1)S(=O)(=O)c1ccc(Cl)c(C(=O)OCC(=O)NCCCN2CCCC2=O)c1 | -10.6 |
| CN1C(=O)c2oc3ccccc3c(=O)c2C1c1ccncc1 (stereo not shown) | 2.48 |
| O=C(Nc1ccc(NC(=O)c2ccco2)nc1)c1ccccn1 | 15.8 |
| Cc1cc(C)cc(N2C(=O)CSC2c2cccs2)c1 (stereo not shown) | -3.11 |
| CC1CN(C(=O)CSc2nnc(-c3ccccc3)o2)CC(C)O1 (stereo not shown) | 17.3 |
| Cc1c(/C=C(\C#N)C(=O)NCc2ccccc2)cc(C#N)n1C | 10.4 |
| O=C(c1ccc(Oc2ccc([N+](=O)[O-])cc2)cc1)N1CCCCCC1 | -25.5 |
| Cc1cc(/C(N)=N/OC(=O)c2ccc(Cl)cc2)no1 | 3.62 |

| Compound | hERG current change (%, negative = inhibition) at 10uM [%] |
| --- | --- |
| Oc1ccc(-c2nncn2-c2ccccc2)cc1 | 14.5 |
| CCOC(=O)C1CCN(c2c(NCc3ccc(C(=O)NCCC(C)C)cc3)c(=O)c2=O)CC1 | 0.362 |
| O=C1CCCC2=C1C(c1ccccc1)C1C(=O)c3ccccc3C1=N2 (stereo not shown) | 6.16 |
| Cc1ccc(-c2cc(C(F)F)n3ncc(C(=O)NN4CCCCC4)c3n2)cc1 | 23.8 |
| COc1ccc(C(=O)NC(Cc2c[nH]c3ccccc23)C(=O)O)cc1 (stereo not shown) | 12.4 |
| COC(=O)N[C@H](CC(C)=O)c1ccccc1 | 13.8 |
| O=C(Nc1ccc(S(=O)(=O)NCc2ccccc2)cc1)Nc1ccc2c(c1)OCO2 | 3.16 |
| CCC(C)NC(=O)CSc1nc2ccccc2c(=O)n1Cc1ccc(OC)cc1 (stereo not shown) | 0.538 |
| CCCCCn1c(CNC(=O)CC)nc2ccccc21 | -17 |
| COC(=O)c1ccc(-c2cc(C(=O)O)c3cc4c(cc3n2)OCCO4)cc1 | -0.776 |
| COc1ccccc1N1CCN(S(=O)(=O)c2c(C)[nH]c(C)c2C(=O)N2CCCCC2)CC1 | 12.9 |
| CCN(CC)S(=O)(=O)c1ccc(/C=C/C(=O)OCC#N)cc1 | -12.4 |
| Cc1[nH]n(-c2ccccc2)c(=O)c1/C=N/N1C(=O)c2ccc3c4c(ccc(c24)C1=O)CC3 | 1.03 |
| CC(C)C(C(=O)Nc1nccs1)c1ccc(Cl)cc1 (stereo not shown) | 12.7 |
| CCN(c1ccc(NC(=O)COC(=O)CCc2nc3ccccc3n2-c2ccccc2)cc1)C(C)C | -0.499 |
| COc1cc2cc(C(=O)Nc3ccccc3)c(N)nc2cc1OC | -18.6 |
| CCc1c(C)sc(NC(=O)OC)c1C(N)=O | 12.7 |
| COC(CNC(=O)C(=O)Nc1ccc2c(c1)N(S(=O)(=O)c1cccs1)CCC2)OC | 2.86 |
| COC(=O)C1=C(C)N(CCCC(=O)O)C(=O)NC1c1ccc(Cl)cc1 (stereo not shown) | -12.1 |
| OCCOCCOc1ccc(-c2nn[nH]n2)cc1 | 11.6 |
| COc1ccc(C2c3[nH]c4ccccc4c3C[C@H]3C(=O)N(C4CCN(Cc5ccccc5)CC4)CC(=O)N23)cc1OC (stereo partly shown) | -45.2 |
| O=C(Nc1ccc([N+](=O)[O-])cc1)c1cccc(S(=O)(=O)Nc2ccccn2)c1 | 1.99 |
| O=C(c1ccccc1)c1c[nH]c(C(=O)C(Cl)(Cl)Cl)c1 | 33.3 |

| Compound | hERG current change (%, negative = inhibition) at 10uM [%] |
| --- | --- |
| CC1CC1C(=O)OCC(=O)Nc1ccccc1Oc1ccccc1 (stereo not shown) | 13.9 |
| Cc1cc(C)n(C(=O)/C(C#N)=N\Nc2ccccc2[N+](=O)[O-])n1 | 14.3 |
| N#Cc1c2ccc(OCC(N)=O)cc2n2ccccc12 | 35.1 |
| Nc1[nH][nH]c(=O)c1N=Nc1ccc2c(c1)OCO2 | 21.8 |
| Cc1nc(NC(=O)c2c(-c3ccccc3Cl)noc2C)sc1C | -12.5 |
| COc1ccc(/C=C/c2nc(S(=O)(=O)c3ccccc3)c(N(C)C)o2)cc1 | 1.65 |
| COc1cc(C=O)ccc1OCC(=O)NC(C)(C)C | 5.35 |
| Cc1ccc(CCN2CC(C(=O)NCCCN3CCCCCC3)CC2=O)cc1 (stereo not shown) | 10.8 |
| COCC(=O)Nc1cc([N+](=O)[O-])ccc1OC | 5.1 |
| COc1ccc(OC)c(S(=O)(=O)N2CCN(CC(O)COc3ccccc3)CC2)c1 (stereo not shown) | -34.7 |
| NC(=O)c1ccc(S(=O)(=O)N2CCSCC2)cc1 | 14.8 |
| Cc1cccc2cc(C(c3nnnn3Cc3ccccc3)N3CCCc4ccccc43)c(=O)[nH]c12 (stereo not shown) | 2.22 |
| COc1ccc(C(=O)O/N=C(/C(N)=O)P(=O)(OC(C)C)OC(C)C)cc1 | -8.54 |
| Cc1ccc(CCNC(=O)CC(C)CC2=NS(=O)(=O)c3ccccc3N2)cc1 (stereo not shown) | 10.4 |
| CC1(C)CC(=O)C=C(NCCN2CCNCC2)C1 | -2.18 |
| CCCCC(=O)Nc1c(-c2ccc(OC)c(OC)c2)c(=O)c2ccccc2n1C | 21.9 |
| COc1ccc(NC(=O)c2ccccc2CC[N+](=O)[O-])cc1 | 9.51 |
| C=CCn1c(O)c(C(C)=NCCc2ccccc2)c(=O)[nH]c1=O | -14.7 |
| CCCCCCCCCCS(=O)(=O)N/N=C/c1ccccc1OC | -0.985 |
| COc1cc(CNn2nnnc2N)ccc1OCc1c(Cl)cccc1Cl | -1.22 |
| Cc1cc(C)n(S(=O)(=O)c2ccc(Cl)c(Cl)c2Cl)n1 | -2.78 |
| CCc1cccc(C)c1NC(=O)Cc1ccsc1 | 4.64 |
| CC(C)C(=O)Nc1ccc(NC(=O)c2cccs2)cn1 | -2.8 |

| Compound | hERG current change (%, negative = inhibition) at 10uM [%] |
| --- | --- |
| CCOC(=O)c1c(C)[nH]c(C(=O)COC(=O)c2ccccc2NC(=O)c2ccco2)c1C | 12.8 |
| COc1ccc(Cl)cc1NC(=O)CN(C)C(=O)CCCNC(=O)c1ccc(Cl)cc1 | -55.4 |
| O=C1O/C(=C/c2ccccc2)N=C1c1ccccc1 | 12.3 |
| CC(C)(C)NC(=O)Cn1ccc(=N)c2ccccc21.Cl | 4.84 |
| CCOC(=O)c1cccc(NC(=O)CSc2nnc(-c3ccoc3C)n2CCOC)c1 | -19.7 |
| O=C(CCCCCNc1nc(=S)[nH]c2ccccc12)NCCc1c[nH]c2ccccc12 | 5.94 |
| O=C(O)C1C2C=CC(C2)C1C(=O)NCc1cccc(Cl)c1 (stereo not shown) | 21.9 |
| CCN(CC1COc2ccccc2O1)C(=O)CN1C(=O)NC(C)(c2ccccc2)C1=O (stereo not shown) | -12.4 |
| O=C(NCCSc1ccc(Cl)cc1)c1ccco1 | -21.4 |
| N#CC1(Cc2ccc([N+](=O)[O-])cc2)c2ccccc2C=CN1C(=O)c1ccccc1 (stereo not shown) | -24.1 |
| Cc1ccc(-c2ccc(CCC(=O)O)n2NC(=O)c2ccco2)cc1 | -8.06 |
| COc1ccc(OC)c(C(c2nnnn2Cc2ccccc2)N2CCC(C(N)=O)CC2)c1 (stereo not shown) | -13.5 |
| COc1ccc(CNC(=O)CNS(=O)(=O)c2ccc(Cl)cc2)cc1 | -23.1 |
| Cn1cnnc1SCC(=O)c1ccco1 | 9.46 |
| O=C(COc1cccc2c1CCN(Cc1ccc(Br)cc1)C2=O)NCc1ccco1 | -70.6 |
| CC(C)COC(=O)CCNc1n[nH]c(=O)[nH]c1=O | 2.82 |
| Clc1ccccc1OCCn1cnc2ccccc21 | -10.6 |
| O=C(Cc1ccccc1)Nc1ccc(N2CCOCC2)cc1 | 30.2 |
| Cc1ccc(-n2c(SCC3CNC(=O)O3)nnc2-c2ccccc2)cc1C (stereo not shown) | -29 |
| COc1ccccc1OC(=O)c1cc2ccccc2oc1=O | 6.48 |
| c1cn(C23CC4CC(CC(C4)C2)C3)cn1 | -13.1 |
| Cc1ccc(C(=O)NC2(C(F)(F)F)N=C3SCCN3C2=O)cc1 (stereo not shown) | 20.5 |

Reference: article PMC4336329 (PLoS ONE, 2015)
